Results on 22 molecules are retold here after paper PMC12136788.

The labels stand for the following.
B1: chr1:83882962:83883136:-|CDS|ENSG00000137941|control|control|control (ssRNA)
RNA: GGGAGUUCUACAGUCCGACGAUCGACUCCUUUGCAGCUCCAGUGUUGCCAGCGCCUAGUGGAGCUUUGUAAACAGUGCCUGCUAGUGGUUUACAAAUAUGCAACUGACAAAAGAGGAUCACUUUCAGGCAUUGGUCCUGACUGCAACAGAGGAUUGAGCAUCA
B2: chr19:45712844:45712945:-|CDS|ENSG00000177051|unk|total|mutant (ssRNA)
RNA: GGGAGUUCUACAGUCCGACGAUCGGAACAGCGGGCAGCCCUGGCCCUGCAGAGCUACCCACGACCGACCACCCCAGCGCCUGCCGUCUUUGUGUCCGCCGAGCAAGGUGGACCGGCCAAGGGGGUGGGAUCUGAACGGCGGUCCAACAGAGGAUUGAGCAUCA
B3: chr4:145760401:145760502:-|3pUTR|ENSG00000151612|unk|total|mutant (ssRNA)
RNA: GGGAGUUCUACAGUCCGACGAUCUCCGUACUUUUCUCUGAAAGGAAUCUUGUCUUGUUAAACCCUAAAGAGAGUGUCCUUAACCGCAAUCAGCACUUGUAAGCUUAUAUACUGGUGCAUUUGGUUUUCUGUUGGGUGAAUGCGCAACAGAGGAUUGAGCAUCA
B4: chr8:133458587:133458688:-|3pUTR|ENSG00000008513|msi1|total|mutant (ssRNA)
RNA: GGGAGUUCUACAGUCCGACGAUCAUGAAACAAAAGCCCUUACUUGGGAAAAGGGACCCCCACCAGCGGCCCUGCUUGCUCCGCCGCUGGGAACAUCUUUUCUGGUUUCCUGAGCCAGCACCUGAAUUGCAACGAAGCUCUGAGCAACAGAGGAUUGAGCAUCA
B5: chr20:64048168:64048962:-|CDS|ENSG00000203883|control|control|control (ssRNA)
RNA: GGGAGUUCUACAGUCCGACGAUCCCGCAAGAAGCAGGCGCGCAAGGCCCGGCGGCUGGAGCCCGGCCUCCUGCUCCCGGGAUUAGCGCCCCCGCAGCCACCGCCCGAGCCUUUCCCCGCGGCGUCUGGCUCGGCUCGCGCCUUCAACAGAGGAUUGAGCAUCA
B6: chr9:137030712:137031725:-|CDS|ENSG00000180549|control|control|control (ssRNA)
RNA: GGGAGUUCUACAGUCCGACGAUCCUGCCCCUGGCCCAGCGGCCGCGAGGGCAGCCCUGGGUGUGGGCCUCCAUGGAGUCUCCUAGCCACACCCACGGCCUCAGCCACCUCCGAGGCAUCUUCAACUGGGUGCUGAGCUACCGGCAACAGAGGAUUGAGCAUCA
B7: ENSG00000135632:stop:overlap|stop_codon|ENSG00000135632|stop_codon|NA|stop_codon (ssRNA)
RNA: GGGAGUUCUACAGUCCGACGAUCAACGGCCCCUGGUGGCUGCACAGUUUCUCUGGAAUGCACUUUAUCGCUACCGAGGGCACUAGAGAAGGCAGAGGAGAAUGCCCAGAGGCUGACCGGGAAACCAGGCCAGGUUCUGCCUCACAACAGAGGAUUGAGCAUCA
B8: chr17:58089832:58089920:+|3pUTR|ENSG00000264364|msi1_unk|FALSE|overlapping (ssRNA)
RNA: GGGAGUUCUACAGUCCGACGAUCAUUCCACUGAACUGUGAUUCUAUGGCUUGGGGCGGAGGGUGGGGUGGGGAUGCCUUCUUUAGGGGCCCUGAGAUGUGUUUGUCUGUGGUGUGUGGGAGUGGGGAGCAGAUUUGUCUUGCUCAACAGAGGAUUGAGCAUCA
B9: chr6:109001311:109001429:-|CDS|ENSG00000080546|unk|total|mutant (ssRNA)
RNA: GGGAGUUCUACAGUCCGACGAUCUGCUGCUUUGGGCCGUUUGGAUAACAUUACGUCCGUGAUGGUUUUCCACCCACAAUAUUCCGAAAGUUUCUUAAAAACUCAGCACUAUCUACUGCAAAUGGAUGGGCCGUUACCCCUACACAACAGAGGAUUGAGCAUCA
B10: chr8:94436494:94436868:-|CDS|ENSG00000265817|control|control|control (ssRNA)
RNA: GGGAGUUCUACAGUCCGACGAUCAAUAGUAGAAAAGAAUAGAUGUUGGGAUAUCAUAGCAGUUAACUAUAAUGCAAUUGGAGUAGACCGCCCUCCUCGAACAGCACAGGGCCUACGCACCCUUUAUAAAAGGCUCAAAGAAUACAACAGAGGAUUGAGCAUCA
B11: chr20:3868059:3868160:+|3pUTR|ENSG00000088888|unk|FALSE|bound_elsewhere (ssRNA)
RNA: GGGAGUUCUACAGUCCGACGAUCUCAGCCUCCAGGGAUCUACACCCUGCCUUGGCUGCUACAGCUUUUUCACUCCACUGCCCUAGGGGAGUUCAGCAACCUAAUGAUCUCUAUCUCUGAACAUCUCUUCAUCCCAUGCUCCAACAACAGAGGAUUGAGCAUCA
B12: chr1:54031757:54031935:-|3pUTR|ENSG00000116209|msi1|FALSE|unique (ssRNA)
RNA: GGGAGUUCUACAGUCCGACGAUCUUAGCUAUGAGCUGAUCAUUGCUCCUUCUCACCUCCUGCCAUGAUACUGUCAGUUACCUUAGUUAACAAGCUGAAUAUUUAGUAGAAAUGAUGCUUCUGCUCAGGAAUGGCCCACAAAUCCAACAGAGGAUUGAGCAUCA
B13: chr12:3284029:3284272:+|3pUTR|ENSG00000011105|msi1|total|mutant (ssRNA)
RNA: GGGAGUUCUACAGUCCGACGAUCCAUGUGGGUAUUCCCACAACAGGUUCUGCACACCCCAGUUAUUUCACAGACAUUCCUGCCCGAAACUGUCAGACAAAUACCUCUCCCGUUCGGAUGCUGCUCACUUUCCCCCUUGCUUCUCAACAGAGGAUUGAGCAUCA
B14: chr12:48342538:48342639:-|3pUTR|ENSG00000167528|unk|total|mutant (ssRNA)
RNA: GGGAGUUCUACAGUCCGACGAUCUUGUUAAACAUUUUGAGUAUCACUCUUGCAUACUGUUACUAUUAUAUUUUCUCUAUAUACCGACAGAAAGGCCAUUUCCGAAUAUUAAAGGCUCUGAAAAUUUCUGCAGCCGACCCAACUCAACAGAGGAUUGAGCAUCA
B15: chr10:88913158:88913259:+|CDS|ENSG00000138134|unk|total|mutant (ssRNA)
RNA: GGGAGUUCUACAGUCCGACGAUCGCAUCAGAGAUUGACCGAGGCAGAAAGGAAGCGGAUUGCUCAGAUGCGCCAGCAGCAGCCCGAAUCGGAGCAGUUUCUGUUUUUCGAAGAUCAACUCAAGAAGCAAGAGUCCGCCCGAGGCAACAGAGGAUUGAGCAUCA
B16: chr15:48878618:48878734:+|CDS|ENSG00000255302|unk|total|mutant (ssRNA)
RNA: GGGAGUUCUACAGUCCGACGAUCAGAACCAGCCCUGGAUGGCGGGUUUCAGAUGCAUUAUGAGAAGACCCCGUUUGAUCAGUCCGCUUUUAUCGAAGAGCUUUUUUCACUGAUGGUUGUCAAUCGUCUGACCGAAGAACUCGGCAACAGAGGAUUGAGCAUCA
B17: chr7:29923496:29923595:-|3pUTR|ENSG00000136193|msi1_unk|total|mutant (ssRNA)
RNA: GGGAGUUCUACAGUCCGACGAUCUCACAGUGCCGAGUUGGCGGGAAAAGCAAAUUCUUUUGAAGUCUCCGUCUUUCCCUCAGCCGCGGUUUCUUUCAGGUUAACAAGAGGCAUUUGUGCACACACACAGGGCUCUUGUGUGUGCAACAGAGGAUUGAGCAUCA
B18: chr2:149026443:149026544:+|3pUTR|ENSG00000168280|msi1|total|mutant (ssRNA)
RNA: GGGAGUUCUACAGUCCGACGAUCGUAAAGUGUGUCCUGUGUACUGCAGAUGUGUGUUCUCUGGGCUUUAUGUAUCUGUACAGCCGCUUUCACAUUAAAAAAAUUGUGGACAAACUUGUCCGGGGGGUUUGAGGGGAGAAUGGUCAACAGAGGAUUGAGCAUCA
B19: chr22:32413844:32414425:-|three_prime_utr|ENSG00000184459|control|control|control (ssRNA)
RNA: GGGAGUUCUACAGUCCGACGAUCUGUAAACCCAGAAGGGAAAGACAGUACACACUGGAAUUGUAAAGCCCUUGUGAAUUGCUUAGGCAGAAAGUUUUCUUUCUUAAGCCUUCAGGAACCCAGAAUAAGGCAGACUCUGUUAAACAACAGAGGAUUGAGCAUCA
B20: ENSG00000070961:be:win_5551|3pUTR|ENSG00000070961|bound_else_gene|NA|bound_elsewhere_windowed (ssRNA)
RNA: GGGAGUUCUACAGUCCGACGAUCAAUUGUACAUUUAUUCAUCAGGUAUUUAUAGUGAAUCAUACUGUAAAAAAGAGGUAGCAUGAUAUGCUGGAAAGCAUAUUAGACUAGGAGUCAAGACCUGGUUUCUAGUCUUGGUUUUGCCAACAGAGGAUUGAGCAUCA
B21: chr12:89642165:89642281:-|CDS|ENSG00000070961|unk|FALSE|bound_elsewhere (ssRNA)
RNA: GGGAGUUCUACAGUCCGACGAUCGCCAAAAACCUUUCUUCAAUUAGUAUGGGAAGCAUUACAAGAUGUCACUUUAAUUAUAUUAGAAAUUGCAGCCAUAGUAUCAUUGGGCCUUUCUUUUUAUCAGCCUCCAGAAGGGGAUAACAACAGAGGAUUGAGCAUCA
B22: chr7:83961326:83961382:-|CDS_3pUTR|ENSG00000075213|msi1_unk|FALSE|overlapping (ssRNA)
RNA: GGGAGUUCUACAGUCCGACGAUCAAACAGGAGGACCCACGAAUUUGAGAGGGCACCCAGGAGUGUCUGAGCUGCAUUACCUCUAGAAACCUCAAACAAGUAGAAACUUGCCUAGACAAUAACUGGAAAAACAAAUGCAAUAUACAACAGAGGAUUGAGCAUCA

The other results are listed elsewhere or left out.

For the assay, the target named is MSI1 full-length (mouse, UniProt Q61474 1-362). Put plainly: nsRBNS (natural sequence RNA bind-n-seq); RBNS binding buffer (assumed for nsRBNS): 25 mM Tris pH 7.5, 150 mM KCl, 3 mM MgCl2, 0.01% Triton X-100, 500 ug/ml BSA, 20 U/ml SUPERase-In, 4 C; UNK is unkempt and MSI1 is Musashi-1; names of the RNAs are library labels; protein concentration not given here; high values mean tight binding.
UniProt Q61474, sequence (Q61474 whole entry): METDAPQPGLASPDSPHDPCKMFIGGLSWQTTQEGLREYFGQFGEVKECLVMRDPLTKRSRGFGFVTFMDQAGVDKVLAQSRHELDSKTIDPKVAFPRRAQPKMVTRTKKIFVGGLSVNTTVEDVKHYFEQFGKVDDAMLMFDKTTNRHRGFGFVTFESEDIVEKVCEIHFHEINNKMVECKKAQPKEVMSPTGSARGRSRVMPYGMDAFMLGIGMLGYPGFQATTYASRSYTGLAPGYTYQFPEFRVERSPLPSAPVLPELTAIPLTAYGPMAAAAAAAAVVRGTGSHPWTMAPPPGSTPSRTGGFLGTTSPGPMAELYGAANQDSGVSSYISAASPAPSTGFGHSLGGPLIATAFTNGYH
With B1, the binding signal turned out to be 0.473 enrichment R.

As to B2, the binding signal stood at 0.292 enrichment R.

The molecule B3 yielded a binding signal of 0.257 enrichment R.

Molecule B4 returned a binding signal of 0.216 enrichment R.

Take B5: the binding signal is 0.197 enrichment R.

B6 showed a binding signal of 0.372 enrichment R.

On to B7, for which the binding signal was 0.701 enrichment R.

Turning to B8, the binding signal is 0.975 enrichment R.

B9 displayed a binding signal of 0.762 enrichment R.

B10 came in with a binding signal of 28.2 enrichment R.

For B11, the binding signal was 0.53 enrichment R.

Molecule B12 gave a binding signal of 7.16 enrichment R.

With B13, the binding signal was 0.768 enrichment R.

For the molecule B14, the binding signal amounted to 1.27 enrichment R.

In turn, B15 had a binding signal of 0.282 enrichment R.

As for B16, the binding signal came out at 0.578 enrichment R.

The molecule B17 showed a binding signal of 0.252 enrichment R.

Regarding B18, the binding signal was 0.49 enrichment R.

Consider B19, for which the binding signal turned out to be 0.237 enrichment R.

In the case of B20, the binding signal amounted to 1.11 enrichment R.

In turn, B21 came in with a binding signal of 9.09 enrichment R.

In turn, B22 gave a binding signal of 0.665 enrichment R.
